Consider 87 compounds from PubChem BioAssay AID463173 (ICCB-Longwood Screening Facility, Harvard Medical School, 2010).

The structures appear in SMILES notation. In all, about 52,000 compounds went through this assay and about 1,700 (3.3%) were called active. Rule as the data show it: active = survival mostly below about 52% (no sharp cut-off); inactive = mostly above about 56%. This is one part of the list.

This test has as its system Wild type. Nature of the test: S. aureus survival, RN4220 and DeltatarO strains – OD600, teichoic acid synthesis inhibitors, primary screen (AID 463173). The following applies: S. aureus RN4220 wild type/DeltatarO growth, OD600, 18 h, active compounds read low, screened at 18.75 µg/mL (by protocol).
As for `COc1cc2[nH]c(=O)c(C(=O)NCCN3CCCC3)c(O)c2cc1OC`, the survival is inactive: 114%. Turning to `Cc1ccc(-n2ncc(C(=O)NC3CCN(Cc4ccccc4)CC3)c2C2CCN(C(=O)OC(C)(C)C)CC2)cc1C`, the survival was inactive: 73%. The same measure for `O=C(Nc1ccc2nc(SCC(=O)N3CCCc4ccccc43)sc2c1)c1ccc(Cl)cc1`: inactive: 85%; for `CCCS(=O)(=O)Nc1cc(-c2cn3ccc(C)cc3n2)ccc1C`: inactive: 97%. The same measure for `Cc1ccc(OCCn2cc(C=C(C#N)C#N)c3ccccc32)cc1`: inactive: 105%; for `O=C(Cn1c2[n+](c3ccccc31)CC(O)CS2)N1CCCCC1` (configuration not stated): inactive: 102%; for `COc1ccc(-n2c(=O)c3ccccc3n(Cc3ccccc3Cl)c2=O)cc1`: inactive: 117%. As for `CC(Sc1nc(=O)cc(N)n1CCc1ccccc1)C(=O)Nc1cccc(Cl)c1` (configuration not stated), the figure is inactive: 72%.

For the compound `CCC(C(=O)NCCc1cc(OC)ccc1OC)n1nc(C)c2c(C)n(-c3ccccc3)nc2c1=O` (configuration not stated), the survival was inactive: 73%. The same measure for `CCOc1ccccc1NC(=O)Cn1c(=O)n(Cc2cccs2)c(=O)c2cccnc21`: inactive: 62%; for `Fc1ccc(-c2nn(-c3ccc(Cl)cc3)c3c2cnc2ccc(F)cc23)cc1`: inactive: 45%; for `Cc1ccc(S(=O)(=O)c2nnn3c2nc(N2CCOCC2)c2sccc23)cc1C`: inactive: 76%. As for `Cc1ccc(Nc2sc(C(=O)c3ccc(F)cc3)c(N)c2S(=O)(=O)c2ccc(C)cc2)cc1`, the figure is inactive: 136%. As for `COc1ccccc1N1CCN(S(=O)(=O)c2c(C)sc3ncn(CC(=O)Nc4ccc(C)cc4Br)c(=O)c23)CC1`, the figure is inactive: 75%; as for `COc1ccc(C(=O)Nc2nc3n(n2)C(c2ccc(Cl)cc2)C=C(c2ccccc2)N3)cc1OC` (configuration not stated), inactive: 75%; as for `Cc1ccc(C)c(CN2C(=O)c3ccccc3S(=O)c3ccc(C(=O)N4CCOCC4)cc32)c1` (configuration not stated), inactive: 89%. Consider `CC(C)(C)n1nnnc1C(c1cc2cc3c(cc2[nH]c1=O)OCO3)N(Cc1ccccc1)Cc1cccnc1` (configuration not stated), for which the survival was inactive: 105%. The same measure for `O=C(Nc1ccccc1)c1ccc(F)cc1`: inactive: 110%. As for `Cc1ccc(CNC(=O)C2CCCN(c3ncnc4onc(-c5ccc(F)cc5)c34)C2)cc1` (configuration not stated), the figure is inactive: 80%. For the compound `CC1=C(C)CS(=NC(=O)c2ccccc2)N(C(=O)c2ccccc2)C1` (configuration not stated), the survival is inactive: 119%. Take `O=C(CN1C(=O)CCSc2ccccc21)Nc1ccc(C(F)(F)F)cc1`: the survival was inactive: 115%. The same measure for `CN1CC(=O)Nc2cc(C(=O)O)ccc21`: inactive: 72%. In the case of `COc1ccc(OC)c(NC(=O)Cn2c(=O)cc(C)c3c(C)nn(-c4cccc(Cl)c4C)c32)c1`, the survival was inactive: 111%. The same measure for `Cc1ccccc1-c1noc(-c2nnn(-c3ccccc3C)c2N)n1`: inactive: 113%. Consider `Cc1ccc(-n2cc(C(=O)OCc3ccc(F)c(F)c3)c3ccccc3c2=O)cc1`, for which the survival is inactive: 86%. As for `CCOc1ccccc1C(=O)Nc1ccc(S(=O)(=O)N(Cc2ccccc2)c2ccccc2)cc1`, the figure is inactive: 121%. As for `CCOC(=O)c1ccccc1NC(=O)Cn1ccn2nc(-c3ccc(OCC)cc3)cc2c1=O`, the figure is inactive: 115%. As for `CCOc1ccc(NC(=O)CN2CCN(CC(=O)Nc3ccc(F)cc3F)CC2)cc1`, the figure is inactive: 73%; as for `CCCN1Cc2cccc(C(=O)Nc3ccccc3C(=O)OC)c2C1=O`, inactive: 136%; as for `COc1cc(C(=O)N2CCN(C(=O)COc3cccc(C)c3)CC2)cc(OC)c1OC`, inactive: 96%. In the case of `COc1ccc(N2CCN(C(=O)c3cnn(-c4ccc(OC)cc4)c3C3CCN(C(=O)OC(C)(C)C)CC3)CC2)cc1`, the survival was inactive: 92%. The same measure for `O=C(Nc1c[nH]c2cc(Cl)ccc2c1=O)N1CCCCC1`: inactive: 85%. Take `COc1ccc(Cc2nc3c4cnn(-c5cccc(F)c5)c4ncn3n2)cc1`: the survival was inactive: 87%. For `COC(=O)c1c(NC(=O)COc2cccc(C(F)(F)F)c2)sc2c1CCCC2`, the survival was inactive: 72%. The same measure for `Cc1cccc(C(=O)N(Cc2ccccc2F)C2CCS(=O)(=O)C2)c1` (configuration not stated): inactive: 92%; for `Cc1c(Cl)cccc1-c1ccc(/C=C(\C#N)c2nc3ccccc3[nH]2)o1`: active: 8%; for `CCCCOc1cccc(C(=O)N2CCN(CCc3ccncc3)CC2)c1`: inactive: 88%. As for `CCCNC(=O)N1CCCN(S(=O)(=O)c2ccc3c(ccn3CC)c2)CC1`, the figure is inactive: 71%; as for `CCN(CC)c1ccc(NS(=O)(=O)c2cc(-c3cc(C)no3)ccc2C)c(C)c1`, inactive: 127%; as for `Cc1cc(S(=O)(=O)Nc2ccc(O)c(Sc3nc4ccccc4s3)c2)ccc1Cl`, active: -2%. The same measure for `CCc1nn(CC(=O)NCCOC)c(=O)c2cc3cc(F)ccc3n12`: inactive: 78%; for `CCOC(=O)c1c(NC(=O)c2ccc(S(=O)(=O)N(CC)CC)cc2)sc2c1CCCCC2`: inactive: 80%. Regarding `O=C(Nc1cccc(C(F)(F)F)c1)Nc1ccc2snnc2c1`, the survival is active: 29%.

Take `Cc1ccc(CCNC(=O)CN(c2ccc(C(C)C)cc2)S(=O)(=O)c2c(C)nn(C)c2C)cc1`: the survival was inactive: 86%. For `CCN(CC)C(=O)CSc1nc2cc3c(cc2c(=O)n1CCCC(=O)NCc1ccc(OC)cc1)OCO3`, the survival was inactive: 82%. As for `CCc1ccc(CN(Cc2cn[nH]c2-c2ccc(OC)cc2)C(=O)Nc2ccc(Br)cc2)cc1`, the figure is inactive: 83%; as for `CN(C)c1ccc(C(CNS(=O)(=O)c2ccc(F)cc2F)N2CCOCC2)cc1` (configuration not stated), inactive: 69%; as for `CCOC(=O)c1ccc(Nc2nc3nonc3nc2NCc2ccco2)cc1`, inactive: 35%. As to `O=C(NCCC1=CCCCC1)c1ccc2c(c1)N(Cc1ccccc1)C(=O)c1ccccc1S2=O` (configuration not stated), the survival was inactive: 94%. As for `CCn1c(SCC(=O)Nc2c(C)cccc2C)nnc1-c1nonc1NC(C)=O`, the figure is inactive: 131%; as for `Cc1ccc(C(=O)N2CCCCC2CCN2CCCCC2)cc1` (configuration not stated), inactive: 86%. The same measure for `COc1ccc(CCN(Cc2cc3cc(C)ccc3[nH]c2=O)C(=O)N2CCCC2)cc1OC`: inactive: 100%; for `CCOC(=O)c1[nH]c(=O)[nH]c1CSC(=N)N`: inactive: 101%. The same measure for `CN(C)C(=O)C1Cc2ccccc2CN1S(=O)(=O)c1ccc(F)cc1` (configuration not stated): inactive: 105%. Consider `CCS(=O)(=O)c1cccc(C(=O)Nc2ccc(-c3nc4ccccc4s3)c(O)c2)c1`, for which the survival was inactive: 87%.

With `Cc1cccc(NC(=O)Cn2c(=O)c3cccn3c3ccccc32)c1C`, the survival is inactive: 92%.

Consider `COc1ccc(-c2csc(-c3c(N)c(C(=O)c4ccccc4)n4ccccc34)n2)cc1OC`, for which the survival was inactive: 67%. As for `CCNC(=S)N1CCN(c2ccccc2)CC1`, the figure is inactive: 118%; as for `COc1ccccc1N1CCN(C(=O)CSc2nc3ccccc3nc2Cc2ccc(C)cc2)CC1`, inactive: 65%. With `COc1cc(NS(=O)(=O)c2cc(Br)cc3c2N(C(=O)C2CC2)CC3)cc(OC)c1`, the survival is inactive: 124%. For the compound `CCN(CCCNC(=O)c1nn(-c2ccc(OC)c(Cl)c2)c(=O)c2c1c1ccccc1n2C)c1ccccc1`, the survival was inactive: 84%.

With `O=C(O)c1ccc2c3c(ncnc13)-c1ccccc1C2=O`, the survival was inactive: 101%. The same measure for `COc1ccc(OC)c(CNC(=O)CSc2c3c(nc4cc(Cl)ccc24)CCCC3)c1`: inactive: 80%; for `Cc1ccc(CN2CCN(C3CCN(S(=O)(=O)N(C)C)CC3)C(=O)C2=O)cc1`: inactive: 85%; for `CC1(C)OC(=O)CC1C(=O)O` (configuration not stated): inactive: 108%. Consider `CC1CCN(C(=O)Cn2c(SCC(=O)Nc3ccc(F)cc3)nc3ccccc32)CC1`, for which the survival was inactive: 70%. As for `Cc1ccc(-c2csc(C(C#N)=C3CCCC3)n2)cc1`, the figure is inactive: 103%; as for `CCOC(=O)C1=C(CN2CCN(C)CC2)NC(=O)NC1c1ccc(F)cc1` (configuration not stated), inactive: 71%.

Turning to `CC(C)c1ccc(OCC(=O)NCC(c2ccc(Cl)cc2)N2CCOCC2)cc1` (configuration not stated), the survival was inactive: 81%. As for `CCN(Cc1ccccc1)C(=O)Cn1c(=O)n(-c2cccc(C)c2)c(=O)c2c1c1cc(OC)ccc1n2C`, the figure is inactive: 77%; as for `COc1cccc(C(=O)NC2CC3CCCC(C2)N3CC(=O)Nc2ccc(N(C)C)cc2)c1` (configuration not stated), inactive: 106%. As for `Cc1nc2c(C(=O)NCCc3ccc(Cl)cc3)cnn2c(C)c1Cc1ccc(F)cc1`, the figure is inactive: 73%. As for `CC(C)NC(=O)C1CCN(C(=O)c2cnn(-c3ccccc3)c2-n2cccc2)CC1`, the figure is inactive: 76%; as for `CNc1nc2c(c(=O)n(C)c(=O)n2C)n1CC(O)COc1ccc(OC)cc1` (configuration not stated), inactive: 70%.

For the compound `CN(C(=O)c1cc2nc(-c3ccc4c(c3)OCO4)cc(C(F)(F)F)n2n1)c1ccc(OC(F)(F)F)cc1`, the survival was inactive: 75%.

In the case of `Cn1nc(C(=O)NCCc2ccc(Cl)cc2)c2c1-c1ccccc1SC2`, the survival is inactive: 82%. `CCCSc1nc2sc3c(c2c(=O)n1-c1ccc(C)c(Cl)c1)CCN(C(C)=O)C3`: the survival is inactive: 87%. As for `CCOC(=O)C1C(=O)C=C(c2ccc(NS(C)(=O)=O)cc2)CC1c1ccco1` (configuration not stated), the figure is inactive: 106%. The same measure for `CSc1nnc2n(-c3cccc(C)c3)c(=O)c3c4c(sc3n12)CCCC4`: inactive: 79%; for `Cc1cccc(-c2nnc(SCC(=O)N3CCCCC3)o2)c1`: inactive: 118%. As for `O=C(Nc1ccccc1F)c1oc2ccccc2c1NC(=O)c1c(F)cccc1F`, the figure is inactive: 53%; as for `Cc1cccn2c(=O)cc(COc3cccc(NC(=O)c4cccc(Cl)c4)c3)nc12`, inactive: 136%; as for `COc1ccc(S(=O)(=O)c2c(O)c(C)cc(NC(=O)c3ccccc3)c2C(C)C)cc1`, inactive: 85%. On to `COc1ccccc1N1CCN(C(=O)c2ccc(Nc3nc4ccccc4n4nnnc34)cc2)CC1`, for which the survival is inactive: 91%. The same measure for `CCn1c(=O)n(CC)c2cc(N3CCCC3)c(NC(=O)Nc3cc(C)cc(C)c3)cc21`: inactive: 63%; for `Cc1ccc(CNC(=O)c2nn(C)c3c2CSc2ccc(C)cc2-3)cc1`: inactive: 59%. The same measure for `Cc1ccc(CCNC(=O)CSCc2nc(-c3ccc(C)cc3)oc2C)cc1`: inactive: 27%.
